Measurements: the supplement of paper PMC3334620
Over roughly 33,000 sequences, “E-score (-0.5 to 0.5)” has its median near -0.054; the highest 2% begin near 0.39. The list shows a part of the results.

target: Ylr278c (UniProt Q05854); test: PBM E-score (8-mer binding enrichment) (E-score (-0.5 to 0.5)); higher = stronger / more preferred TF binding; most listed sequences are background and not binding sites; conditions: protein concentration: 200 nM; construct: GST-DNA-binding domain
Procedure: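 Universal 'all 10-mer' protein binding microarrays (Agilent AMADID 015681) probed with GST-tagged S. cerevisiae TFs (full-length or DBD) made by in vitro transcription/translation (PURExpress), about 100-200 nM. Bound TF was detected with fluorescent anti-GST. Each ungapped 8-mer (which stands for itself and its reverse complement) is scored by the PBM enrichment score (E-score), a modified Wilcoxon-Mann-Whitney statistic from -0.5 to +0.5, computed with the Universal PBM Analysis Suite. Scale: above 0.35 generally sequence-specific binding.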

Row | Sequence | PBM E-score
1 | AGGGTGGG | -0.00128
2 | ACGCGTGC | 0.0415
3 | CATGTTAG | -0.305
4 | ATGATTTG | -0.109
5 | AGCCGGCA | 0.33
6 | GCACGTCA | -0.16
7 | CCTACAAC | -0.135
8 | ATCACGTA | -0.251
9 | GCCACACC | -0.0734
10 | ATTTGTAG | -0.189
11 | AAATTGGC | -0.0165
12 | AACGGCTG | -0.0556
13 | CCATACAC | -0.0289
14 | AGCGCGAG | -0.103
15 | AAGCCACG | -0.0652
16 | CGAGATAG | -0.112
17 | TAATCCGA | 0.359
18 | CTTAAAAG | -0.255
19 | ATTCGCAG | 0.0812
20 | ACAAGGAG | -0.00099
21 | AAGTTAGA | -0.0698
22 | ACAAGATG | -0.0994
23 | CCCTCCAA | -0.119
24 | ACTATCTG | -0.347

Row | Sequence | PBM E-score
25 | AAGTGCAT | -0.136
26 | AGGCTCAT | -0.112
27 | ACCAGAAA | 0.00196
28 | TCGAAGAA | -0.0929
29 | ACAGAAAT | -0.148
30 | ACCTGTAA | -0.12
31 | CCCAGTAA | -0.082
32 | GCGTTAAC | 0.00826
33 | CTTTATGC | -0.05
34 | ACATCGAG | -0.288
35 | TTGTAAAA | -0.0868
36 | AGCGAATC | 0.0435
37 | GATACTCC | 0.189
38 | GCCTAGAC | -0.0713
39 | CAGTATAA | -0.126
40 | AAACAGTC | -0.302
41 | TCGTTTCA | 0.0509
42 | CGAGTCGA | -0.126
43 | ACATTGCC | -0.152
44 | CGGGAGAG | 0.108
45 | GATACCAA | 0.0152
46 | CTTGACGA | -0.164
47 | CTCGCAAC | -0.123
48 | GCCTACGC | -0.221

Row | Sequence | PBM E-score
49 | AATAATAG | -0.0615
50 | CATCGCGC | 0.1
51 | AAAGTATG | -0.0796
52 | ACGTGGTA | -0.189
53 | CAAAAAAG | -0.0536
54 | ATTAATCC | 0.239
55 | CCCACGCA | -0.0116
56 | TCTGCTAA | -0.193
57 | ACGTGGTC | -0.271
58 | AGTTAATG | -0.17
59 | ACTGGATA | 0.0455
60 | CTTGCTAC | -0.143
61 | ACACTTAA | -0.112
62 | AACCCCGT | 0.381
63 | ATGTAGGG | 0.111
64 | TAGAGATA | -0.07
65 | CCGACGTC | 0.341
66 | CTATTCTC | 0.0934
67 | CTGGGCAC | -0.183
68 | CATACTAA | -0.0312
69 | ACTGATAA | -0.075
70 | ACTCCTCT | -0.0377
71 | CGGCTTAC | 0.179
72 | AAGGAAAT | -0.187

Row | Sequence | PBM E-score
73 | ATCTGTCC | 0.0882
74 | CGCAGCAG | 0.017
75 | GTGCCGAA | 0.241
76 | AGGCAGGA | -0.216
77 | AAGAACAG | -0.212
78 | AGTTGTAC | -0.00525
79 | CGAGAGTC | -0.0863
80 | CAAAGAAG | -0.00668
81 | CCATGGAG | -0.194
82 | GACAGCAC | 0.151
83 | AGCGGGTC | 0.0309
84 | GACAGAAA | 0.0117
85 | AGGAGGGG | -0.21
86 | GCACATTA | -0.0892
87 | AACTCGCA | -0.364
88 | AAATTGAA | -0.259
89 | CTCACGAA | -0.209
90 | CCTAGCCA | -0.288
91 | ATATGGGA | -0.0358
92 | AAGAGAAC | -0.0874
93 | ACCACTAA | -0.0375
94 | ACGACAAT | 0.0833
